# About 14,000 (4.5%) of roughly 310,000 compounds showed an effect of 50% or more. The effect is printed as a negative number. The list shows a part of the results.
# Target: human ether-à-go-go-related gene (hERG) potassium channel (human, UniProt Q12809)
# Assay: primary screen, population patch clamp on CHO cells stably expressing hERG
# 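Also: peak tail current of the secondary pulse compared with the same well before compound.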
# Chain of human ether-à-go-go-related gene (hERG) potassium channel (Q12809 whole entry, looked up): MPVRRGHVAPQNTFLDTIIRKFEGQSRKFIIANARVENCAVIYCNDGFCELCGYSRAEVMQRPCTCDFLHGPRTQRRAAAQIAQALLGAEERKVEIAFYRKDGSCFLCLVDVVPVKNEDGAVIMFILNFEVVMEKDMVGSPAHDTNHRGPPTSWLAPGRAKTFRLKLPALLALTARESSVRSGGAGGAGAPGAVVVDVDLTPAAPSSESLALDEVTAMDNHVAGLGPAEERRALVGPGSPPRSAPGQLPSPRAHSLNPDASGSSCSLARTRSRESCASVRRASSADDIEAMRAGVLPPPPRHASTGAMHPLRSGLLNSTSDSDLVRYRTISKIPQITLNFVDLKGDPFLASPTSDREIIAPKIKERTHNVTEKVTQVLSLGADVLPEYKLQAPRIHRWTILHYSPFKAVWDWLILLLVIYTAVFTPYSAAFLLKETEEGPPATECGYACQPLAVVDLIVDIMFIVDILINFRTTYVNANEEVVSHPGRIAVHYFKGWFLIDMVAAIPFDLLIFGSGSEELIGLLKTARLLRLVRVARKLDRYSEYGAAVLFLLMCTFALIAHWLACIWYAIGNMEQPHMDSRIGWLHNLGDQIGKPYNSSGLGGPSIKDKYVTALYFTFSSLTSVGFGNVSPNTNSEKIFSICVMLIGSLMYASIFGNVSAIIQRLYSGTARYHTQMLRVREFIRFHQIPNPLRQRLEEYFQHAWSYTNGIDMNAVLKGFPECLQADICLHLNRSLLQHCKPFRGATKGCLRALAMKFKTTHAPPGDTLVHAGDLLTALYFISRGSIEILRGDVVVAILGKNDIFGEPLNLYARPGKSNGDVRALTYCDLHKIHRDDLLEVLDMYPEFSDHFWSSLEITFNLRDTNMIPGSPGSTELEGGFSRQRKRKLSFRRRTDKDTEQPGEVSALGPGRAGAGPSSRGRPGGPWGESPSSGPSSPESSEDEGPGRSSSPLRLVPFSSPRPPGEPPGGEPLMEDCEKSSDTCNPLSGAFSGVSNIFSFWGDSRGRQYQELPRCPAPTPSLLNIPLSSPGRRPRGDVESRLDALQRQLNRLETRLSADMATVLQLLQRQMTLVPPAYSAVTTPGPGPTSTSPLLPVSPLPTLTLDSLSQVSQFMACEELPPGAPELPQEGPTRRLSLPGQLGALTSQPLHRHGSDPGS
row,SMILES,"hERG current change (%, negative = inhibition) at 10uM"
1,CCS/C(N)=N/N=C/c1cc(C)ccc1O,-2.73%
2,CN1C(=O)CN=C(c2ccccc2Cl)c2cc(Br)ccc21,-18.9%
3,Cc1ccc(S(=O)(=O)N(C)CC(=O)N2CCN(Cc3ccccc3)CC2)cc1,-24.6%
4,Cc1cc(C)c2c(c1)NC(c1cc3c(cc1Br)OCO3)C1CC=CC21 (stereo not shown),5.68%
5,CCCCNC(=S)NCc1ccc2c(c1)cc(C)n2C,-10.3%
6,COc1ccc(NC(=O)C2CCCN(S(=O)(=O)c3c(C)n[nH]c3C)C2)c(OC)c1 (stereo not shown),-0.203%
7,CC(=O)c1c(C)n(-c2ccc(C)cc2)c2ccc(O)cc12,12%
8,CCN1CCN(c2oc(-c3ccc([N+](=O)[O-])cc3)nc2C#N)CC1,-53.1%
9,CC(NC(=O)COC(=O)c1ccccc1Nc1ccccc1)c1ccccc1 (stereo not shown),3.62%
10,Nc1nnnn1/N=C/c1cccc(Br)c1,2.91%
11,Cc1ccc([N+](=O)[O-])cc1S(=O)(=O)Nc1ccc(C(=O)NCc2ccccn2)cc1,11.7%
12,CCCCNC(=O)OCC(CC)NC(=O)OCC(C)C (stereo not shown),5.18%
13,CN(CC(=O)N1CCCC1)S(=O)(=O)c1cccc(Cl)c1,9.85%
14,CCn1ncc(Br)c1C(=O)Nc1cc(C(=O)OC)ccc1C(=O)OC,-3.95%
15,CC(=O)Nc1ccc(S(=O)(=O)N2CCN(Cc3csc(C)n3)CC2)cc1,12.4%
16,Cc1nnc(NC(=O)C2CCCCC2)s1,15.8%
17,Br.COc1ccc(N=C/C=C2/C=C(c3ccccc3)OC(C)(C)O2)cc1,-49.1%
18,O=C(Cc1ccccc1)NC(=S)Nc1ccc(N2CCCCC2)cc1,11.9%
19,CCn1c2ccccc2c2cc(NC(=O)c3coc(=O)c(Br)c3)ccc21,7.89%
20,CCN1CCCc2cc(CN(CCN3CCOCC3)C(=S)Nc3cccc(C)c3)ccc21,9.57%
21,O=C(CSc1ccccc1)Nc1ccc(-c2nc3ccccc3[nH]2)cc1,22.5%
22,CSc1ccccc1NC(=O)CN1CCN(c2ccccn2)CC1,-20.1%

row,SMILES,"hERG current change (%, negative = inhibition) at 10uM"
1,CCOc1cc(/C=C2\SC(=N)N(c3nccs3)C2=O)ccc1OCCN1CCOCC1,-26.3%
2,CCn1cc(C(=O)NCc2cccnc2)c(=O)c2cc(F)c(N3CCN(C(=O)c4ccco4)CC3)cc21,-37.6%
3,CCOC(=O)c1cnc(SC)nc1Sc1ccccc1Cl,14.9%
4,COc1cccc(/C=N/NC(=O)c2[nH]nc3c2CCc2ccccc2-3)c1O,12%
5,O=C(NCCc1ccccc1)C(c1cccs1)N(C(=O)CCl)c1ccc(Cl)cc1 (stereo not shown),1.35%
6,CN1CCN(c2ccc(NC(=O)c3ccc4c(c3)OCCO4)cc2Cl)CC1,-81.2%
7,CC1=C(C(=O)N2CCOCC2)C(c2c(C)cc(C)cc2C)NC(=S)N1 (stereo not shown),10.5%
8,Cc1ccc(C2/C(=C(/O)c3ccc4c(c3)CC(C)O4)C(=O)C(=O)N2CCCn2ccnc2)cc1 (stereo not shown),0.311%
9,O=S1(=O)CCN=C2SC3=C(CCCC3)N21,1.25%
10,Cn1c(SCc2ccc(Br)cc2)nc2c(c1=O)SCC2,-18.6%
11,CC(=O)Nc1ccc(S(=O)(=O)Nc2nc3ccccc3nc2N2CCc3ccccc3C2)cc1,3.02%
12,CC(C)CN1CCN(Cc2nc3ccccc3s2)CC1CCO (stereo not shown),-56.8%
13,COc1ccc(Cl)cc1NC(=O)Nc1ccc(C(=O)N2CCOCC2)cc1,-6.56%
14,CC(Oc1ccccc1)C(=O)Nc1c2c(nn1-c1ccccc1)CS(=O)(=O)C2 (stereo not shown),18.2%
15,COc1ccc(C)cc1S(=O)(=O)NC1CC1,27.1%
16,COC(=O)c1ccc(C(=O)OC)c(NC(=S)N2CCN(c3ccccn3)CC2)c1,-6.96%
17,O=C(NNC(=O)C1C2CCCCC21)c1coc(=O)c(Br)c1 (stereo not shown),7.28%
18,COCCCN1C(=O)C(=O)/C(=C(/O)c2ccc(OCC(C)C)cc2)C1c1cccnc1 (stereo not shown),4.37%
19,c1ccc(-c2cn3nc(-c4ccccc4)cnc3n2)cc1,25.6%
20,CCn1c(COc2cccc3ccccc23)nnc1SCC(=O)OC1CCCCC1,-2.91%
21,Cc1ccc(N=CC=C2OC(C)(C)C(C)(C)O2)cc1,-3.88%
22,CCn1c(SCC(N)=O)nc2c(c1=O)C1(CCCC1)Cc1ccccc1-2,-45%

row,SMILES,"hERG current change (%, negative = inhibition) at 10uM"
1,CCC(CC)C(=O)NCc1cccnc1,9.85%
2,Cc1ccc(C(=O)O)cc1S(=O)(=O)N1CCSCC1,9.81%
3,O=C(Cc1cc(=O)oc2cc(O)ccc12)N[C@@H](Cc1c[nH]c2ccccc12)C(=O)O,11.1%
4,CNC(=O)COC(=O)c1cc(=O)[nH]c2ccccc12,8.36%
5,C=CCSc1nnc(NC(=O)CSc2nc(CCC)cc(=O)[nH]2)s1,1.71%
6,O=C(COC(=O)Cn1cnc2ccccc21)NCCCc1ccccc1,5.4%
7,O=P(O)(OCc1ccccc1)OCc1ccccc1,12.1%
8,CCOC(=O)c1ccc(NC(=O)CN2CCc3ccccc3C2)cc1,-33%
9,O=C(NCc1ccccc1)c1ccc(C2SCC(=O)N2Cc2ccccc2)cc1 (stereo not shown),-12.6%
10,CC(=O)Oc1cccc2c1C(=O)c1c(OC(C)=O)cc(C(=O)O)cc1C2=O,12.3%
11,Cc1occc1C(=O)NNC(=O)C1CC1,16.3%
12,CC1(NC(=O)C2CCN(C(=O)Nc3ccccc3)CC2)CCS(=O)(=O)C1 (stereo not shown),-7.07%
13,O=C(Nc1ccc(Cl)c(Cl)c1)Nc1nnc(CSc2ccccc2)s1,2.67%
14,O=S(=O)(c1ccccc1)N(Cc1cccc(F)c1)c1ccccc1,26.2%
15,S=C(Nc1ccccc1Oc1ccccc1)NC1CCCC1,-0.79%
16,Nc1nonc1C(=O)N/N=C/c1ccc(-c2ccc(Cl)c(C(=O)O)c2)o1,5.51%
17,Cc1occc1C(=O)NCc1ccc2c(c1)OCO2,7%
18,CSc1nc(-c2ccc(Cl)cc2)nn1S(=O)(=O)c1ccccc1,-1.41%
19,C[C@@H](C(=O)OCC(=O)NCCc1ccc(S(N)(=O)=O)cc1)N1C(=O)C2CCCCC2C1=O (stereo partly shown),5.32%
20,COc1cccc(CN2CCC(Oc3ccc(C(=O)N4CCCCC4)cc3)CC2)c1O,-20.9%
21,COc1cccc(NS(=O)(=O)c2cc3c4c(c2)CCC(=O)N4CCC3)c1,-17.1%
22,CCOC(=O)Nc1ccc(OC)c([N+](=O)[O-])c1,23.9%

row,SMILES,"hERG current change (%, negative = inhibition) at 10uM"
1,Cc1nc2sc3c(c2c(=O)n1N)CCC3,20.4%
2,FC(F)c1nc2ccccc2[nH]1,12.8%
3,CCOc1cc(/C=C2/C(=O)NC(=O)N(c3ccc(CC)cc3)C2=O)ccc1OC(=O)c1cccs1,7.48%
4,CC(C)(C)OC(=O)N1CCC(Cc2cc(-c3cccnc3)no2)(C(=O)O)CC1,-1.97%
5,O=C(c1ccc(Cl)cc1)N1CCN=C1c1ccccc1,-10.7%
6,CCCNC(=O)Cn1cnc2sc(C(=O)NCCCN3CCOCC3)c(C)c2c1=O,4.36%
7,Cc1ccc(CN2C(=O)N/C(=C/c3ccc(-c4ccc(C(=O)O)cc4)o3)C2=O)cc1,0.0417%
8,O=C(C1=C[C@@H](C2CCCCC2)C[C@@H](OCCCCO)O1)N1CCN(Cc2ccccc2)CC1,-50.1%
9,Cc1ccc(C(C)C)c(OCCNCCc2ccccc2)c1.O=C(O)C(=O)O,-17.3%
10,CCCCCC(=O)N=Nc1c(O)[nH]c2ccc([N+](=O)[O-])cc12,-6.74%
11,COc1cc(C(=O)NC2CCN(Cc3nnnn3Cc3cccs3)CC2)cc(OC)c1OC,-5.59%
12,Cc1oc2c(C)c3oc(=O)c(CCC(=O)NCCCN4CCOCC4)c(C)c3cc2c1C,-6.99%
13,Cn1c(=O)c(C(=O)COC(=O)c2cc(-c3ccco3)nc3ccccc23)c(N)n(Cc2ccccc2)c1=O,-12.2%
14,Cn1c(N)c(S(=O)(=O)N2CCN(c3ccccc3Cl)CC2)c(=O)n(C)c1=O,-7.2%
15,CC(C)(OC1OC(CO)C(O)C(O)C1O)[C@H]1Oc2ccc3ccc(=O)oc3c2[C@H]1O (stereo partly shown),14.6%
16,COc1cc(/C=C/C(=O)N2CCN(c3ccccn3)CC2)cc(OC)c1OC,-5.21%
17,CCCS(=O)(=O)N1CCC(C(=O)N2CCOCC2)CC1,-3.88%
18,CCOC(=O)C(C)(C)Oc1cccc2c1S(=O)(=O)c1ccccc1-2,0.739%
19,O=C(Nc1ccc(S(=O)(=O)NCc2ccco2)cc1)c1ccc(F)cc1,-4.23%
20,Cc1ccc(C(=O)c2c3ccc([N+](=O)[O-])cc3[n+]([O-])n2CCCC(N)=O)cc1,-36.6%
21,Cc1cc(=O)[nH]c(SCC2(O)C3CC4CC(C3)CC2C4)n1 (stereo not shown),23%
22,CCOc1ccc(-n2c(=O)c3sccc3n(CC(=O)NCC3CCCO3)c2=O)cc1 (stereo not shown),16.5%
